# Out of some 270,000 compounds screened, about 5,800 (2.1%) were called active. This list was built around the results that the source calls inconclusive (neither active nor inactive); the mix of calls is not that of the screen. Calls follow the shape of the dose curve; as a rule, active = well fitted inhibition curve with a large enough effect; inconclusive = small, poorly fitted or top-dose-only effect; inactive = flat fitted curve, though single readings scatter. Potencies beside an inconclusive call are fits to weak or partial responses and may not hold up.
# Target: Microtubule-associated protein tau (Homo sapiens) (UniProt P10636)
# Chain of UniProt P10636 (P10636 whole entry, looked up): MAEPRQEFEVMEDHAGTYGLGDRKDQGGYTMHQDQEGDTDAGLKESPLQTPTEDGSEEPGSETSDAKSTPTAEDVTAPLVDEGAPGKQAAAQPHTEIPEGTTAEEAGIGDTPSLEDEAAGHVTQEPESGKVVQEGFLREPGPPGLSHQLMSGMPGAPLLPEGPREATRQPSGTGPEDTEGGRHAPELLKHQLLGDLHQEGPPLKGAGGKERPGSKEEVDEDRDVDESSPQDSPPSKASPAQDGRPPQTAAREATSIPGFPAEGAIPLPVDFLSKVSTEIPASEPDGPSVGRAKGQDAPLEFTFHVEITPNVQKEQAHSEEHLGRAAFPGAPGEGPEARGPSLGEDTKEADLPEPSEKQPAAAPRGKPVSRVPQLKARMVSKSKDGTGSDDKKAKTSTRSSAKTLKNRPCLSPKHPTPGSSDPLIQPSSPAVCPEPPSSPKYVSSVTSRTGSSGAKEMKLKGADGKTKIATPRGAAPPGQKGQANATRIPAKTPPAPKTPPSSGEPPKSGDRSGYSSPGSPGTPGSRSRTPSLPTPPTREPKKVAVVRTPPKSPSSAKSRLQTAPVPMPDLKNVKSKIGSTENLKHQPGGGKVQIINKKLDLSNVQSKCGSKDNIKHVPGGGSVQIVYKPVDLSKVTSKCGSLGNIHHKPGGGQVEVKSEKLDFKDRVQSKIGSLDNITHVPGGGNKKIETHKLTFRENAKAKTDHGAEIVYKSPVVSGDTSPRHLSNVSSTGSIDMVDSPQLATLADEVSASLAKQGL
# Assay: qHTS for Inhibitors of Tau Fibril Formation, Thioflavin T Binding; also: nearly all actives have a fitted effect of over 55% in size
# Conditions: recombinant tau K18 P301L (four-repeat tau fragment), heparin-induced fibrillization, ThT fluorescence; series mostly up to 57.4 µM; activity, negative = inhibition: at the top concentration
# From the text: NIH Molecular Libraries Probe Production Network [MLPCN]
# NIH Chemical Genomics Center [NCGC]
# Assay Provider: Carlo Ballatore, University of Pennsylvania
# The microtubule-associated protein tau is an abundant protein in the axons of neurons that stabilizes microtubules. With its ability to modulate microtubule dynamics, tau contributes directly or indirectly, to key structural and regulatory cellular functions. Particularly important is the influence tau exerts on axonal transport, which allows signaling molecules, trophic factors and other essential cellular constituents to travel along the axons. Under pathological conditions, tau becomes sequestered into insoluble aggregates called neurofibrillary tangles. This phenomenon is believed to have pathological consequences by promoting axonal transport deficits that ultimately lead to synaptic dysfunction and neuronal loss. To identify inhibitors of tau aggregation, a heparin-induced tau fibril formation assay was used that employed a recombinantly expressed fragment of tau, K18 (Q242-E372), bearing a P301L mutation (Gustke et al. 1994; Hong et al. 1998). This assay monitors tau fibrillization by Thioflavin T (ThT) fluorescence.
# Gustke, N., B. Trinczek, et al. (1994). "Domains of tau protein and interactions with microtubules." Biochemistry 33(32): 9511-22.
# Hong, M., V. Zhukareva, et al. (1998).
# Li, W. and V. M. Lee (2006).
# von Bergen, M., S. Barghorn, et al. (2001). "Mutations of tau protein in frontotemporal dementia promote aggregation of paired helical filaments by enhancing local beta-structure." J Biol Chem 276(51): 48165-74.
# NCGC Assay Protocol Summary:
# For screening, 2 uL/well human K18 P301L (15 uM unlabeled and 0.24 uM Alexa 594-labeled tau, final concentrations) in reagent buffer (100 mM sodium acetate pH 7) was dispensed into black solid 1536-well plates (Grenier) using a solenoid-based dispenser. Following transfer of 23 nL compound or DMSO vehicle by a pin tool, 2 uL/well heparin (20 uM final concentration) in reagent buffer was added and the plate centrifuged 15 s at 1000 RPM. Plates were incubated 6 hr at 37 C and then 1 uL/well ThT (30 uM final concentration) was added. After a 1 hr ambient incubation, the plates were read by an Envision (Perkin Elmer) to monitor ThT fluorescence (450/8 nm excitation and 510/23 nm emission).
# Keywords: NIH Roadmap, MLPCN, MLI, MLSMR, NCGC, qHTS, tau, tauopathies, Alzheimer's disease, fibril, neurodegeneration, aggregation
# % is scaled to controls: 0 for no effect and ±100 for the full control effect; potency is read from the fitted curve at half-maximal effect; tags tell the direction and shape of the fitted curve.
SMILES,"activity, negative = inhibition",Potency
CCn1c(N)c(C(=O)NCCOC)sc1=S,inactive: -5.09%,–
CC(=O)c1cnc2cc(-c3ccc(C)cc3)nn2c1C,inactive: -8.73%,–
O=C(Nc1cc(S(=O)(=O)Nc2ccc(Cl)cc2)ccc1N1CCCCC1)c1ccc(F)cc1Cl,inactive: -7.8%,–
CCOc1ccc(NC(=O)NCCCN2CCN(c3ccc(OC)cc3)CC2)cc1,–,"inconclusive: 22.4 µM [inhibitor, partial curve]"
Cc1c(CCC(=O)NCCc2ccccc2F)c(=O)oc2cc(O)ccc12,–,"inconclusive: 20 µM [inhibitor, partial curve]"
O=C(c1ccc2c(=O)n3c(nc2c1)CCCCC3)N1CCN(C(c2ccccc2)c2ccccc2)CC1,–,"inconclusive: 25.1 µM [inhibitor, partial curve, poor fit]"
CCCCC[C@H](O)/C=C/[C@@H]1[C@@H](CC(=O)CCCCC(=O)O)[C@@H](O)C[C@H]1O,–,inactive
COc1ccc(C(=O)NNC(=O)C(Cc2ccc(O)cc2)NC(=O)c2ccccc2NC(=O)c2ccc(OC)cc2)cc1 (stereo not given),inactive: -2.94%,–
CCOC(=O)Cc1cnc(NC(=O)CSc2nc(N)cc(N)n2)s1,inactive: -6.83%,–
Cc1cc(Nc2cccc(Cl)c2)nc2ccc(NC(=O)c3ccc(F)cc3Cl)cc12,–,"inconclusive: 5.01 µM [inhibitor, partial curve]"
Cc1cc(C)c2[nH]c(=S)cc(C)c2c1,–,"inconclusive: 1 µM [inhibitor, partial curve]"
COc1ccc2[nH]c(=O)c(CN(Cc3ccccc3OC)Cc3nnnn3CC3CCCO3)cc2c1 (stereo not given),inactive: -5.85%,–
Fc1ccc(C2=NC(c3cccc(C(F)(F)F)c3)=Nc3ccccc3N2)cc1,inactive: 2.46%,–
CCOc1ccc(Nc2ncnc(N)n2)cc1,–,"inconclusive: 17.8 µM [inhibitor, partial curve]"
O=C(O)CCS(=O)(=O)c1cccc2cccnc12,inactive: -5.99%,–
Cc1ccsc1C1Nc2ccccc2-c2nc3ccccc3n21 (stereo not given),–,"inconclusive: 31.6 µM [inhibitor, single point]"
Cc1ccc(Cl)cc1NC(=O)C1CCCN(S(=O)(=O)c2c(C)noc2/C=C/N(C)C)C1 (stereo not given),–,"inconclusive: 6.31 µM [inhibitor, full curve, poor fit]"
CC1(C)Oc2ccc(NC(=O)C3COc4ccccc4O3)cc2O1 (stereo not given),–,"inconclusive: 39.8 µM [inhibitor, single point]"

SMILES,"activity, negative = inhibition",Potency
O=C1CCCC=C1[C@H](O)CCCCBr,inactive: -7.43% [at 11.5 µM],–
C/C(=N\NC(=O)c1cccc(N/N=C(\C)c2ccncc2)c1)c1ccncc1,–,"inconclusive: 2.24 µM [inhibitor, partial curve]"
COc1cc(C(=O)NCCSc2c(-c3ccccc3)[nH]c3ccccc23)cc(OC)c1OC,inactive: -9.09%,–
COc1ccc2[nH]cc(CCNc3nc(-c4cccc(NS(C)(=O)=O)c4)nc4ccccc34)c2c1,–,"inconclusive: 22.4 µM [inhibitor, partial curve]"
N#CC1=C(N)SC(N)=C(C#N)C1CCc1ccccc1,–,"inconclusive: 39.8 µM [inhibitor, partial curve]"
Clc1ccc(-c2ccc(/C=N/Nc3cc(N4CCOCC4)nc(N4CCOCC4)n3)o2)cc1,–,"inconclusive: 8.91 µM [inhibitor, full curve]"
Cc1ccc2cccc(NC(=S)NC(=O)c3c(Br)cnn3C)c2n1,–,"inconclusive: 7.94 µM [inhibitor, partial curve]"
Cc1cc2cc(CN(Cc3ccco3)S(=O)(=O)c3c(C)ccc4nsnc34)c(=O)[nH]c2cc1C,–,"inconclusive: 20 µM [inhibitor, partial curve]"
CCCC(=O)N1CCN(c2ccc([N+](=O)[O-])cc2Cl)CC1,–,"inconclusive: 28.2 µM [inhibitor, single point]"
CCC(=O)Nc1cccc(-c2cn3c(C)csc3n2)c1,–,"inconclusive: 31.6 µM [inhibitor, single point]"
COc1ccccc1-c1c(C)nn2c(C(F)(F)F)cc(-c3ccccc3)nc12,–,"inconclusive: 11.2 µM [inhibitor, partial curve, poor fit]"
NC(=O)c1ccsc1NC(=O)COc1ccccc1,–,"inconclusive: 28.2 µM [inhibitor, partial curve]"
Cc1ccccc1OCC(=O)Nc1ccc(N2CCN(S(C)(=O)=O)CC2)cc1,–,"inconclusive: 2.24 µM [inhibitor, full curve, poor fit]"
N#CC1=C2C=CC=CN2CC1=O,–,"inconclusive: 28.2 µM [inhibitor, partial curve, poor fit]"
CCc1ccc(S(=O)(=O)c2cn(C)c3cc(N4CCN(CC)CC4)c(F)cc3c2=O)cc1,inactive: 0.949%,–
COc1cc(/C=C(\C#N)c2ccccn2)ccc1OCC(=O)Nc1ccc(Br)cc1,–,"inconclusive: 1.78 µM [inhibitor, full curve]"
Cc1cccc(C(=O)NC2C(=O)NNC2c2ccc(Cl)cc2)c1 (stereo not given),–,"inconclusive: 14.1 µM [inhibitor, partial curve, poor fit]"
